Values joined by “and” are separate entries in the source; they are usually repeats but may differ in a detail not shown here. Equal values may be shown once. Where a name gives a salt, the structure may show the parent alone. ± gives the standard deviation of the averaged measurements. Whole data set: some 2,000 compounds, median “relative cell viability vs DMSO, compound alone” near 1.1, cut for the lowest 2% near 0.29. The list shows a part of the results.
Each molecule was assayed on TE10 (assay: relative cell viability vs DMSO, compound alone (fraction); TE10 is an esophageal squamous carcinoma line; higher = less cytotoxic). Conditions: 2 µM; 48 h.
Protocol: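 TE10 ESCC cells (1,000/well, 384-well plates) were treated with Selleck bioactive library compounds at 2 uM alone for 48 h. Viability was read by CellTiter-Glo and expressed relative to DMSO wells. Two technical replicates (A, B).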
`CC1(C)CC[C@]2(NC(=O)C(C)(F)F)CC[C@]3(C)[C@H](C(=O)C=C4[C@@]5(C)C=C(C#N)C(=O)C(C)(C)[C@@H]5CC[C@]43C)[C@@H]2C1` [Omaveloxolone (RTA-408)] gave a relative cell viability of 0.59 ± 0.032.
With `O=C(NC(Cc1cc(=O)[nH]c2ccccc12)C(=O)O)c1ccc(Cl)cc1` (stereo unspecified) [Rebamipide] the relative cell viability was 1.13 ± 0.081.
Molecule `COC(=O)/C=C/C(=O)OC` [Dimethyl Fumarate] has a relative cell viability of 1.1 ± 0.017.
With `CC(C)c1cc(C(C)C)c(CC(=O)NS(=O)(=O)Oc2c(C(C)C)cccc2C(C)C)c(C(C)C)c1` [Avasimibe] the relative cell viability was 1.12 ± 0.032.
`CCCCCCCCCCCCCCCc1cccc(O)c1C(=O)O` [Anacardic Acid] showed a relative cell viability of 1.15 ± 0.032.
`O=C(NNc1nc2cc(F)ccc2n2cccc12)c1cnccn1` showed a relative cell viability of 0.624 ± 0.035.
In the case of `CN(c1ncccc1CNc1nc(Nc2ccc3c(c2)CC(=O)N3)ncc1C(F)(F)F)S(C)(=O)=O`, the relative cell viability is reported as 0.867 and 1.03 and 1.09.
Molecule `CCc1ccc(OCc2ccccc2C(=O)Nc2ccc3nc(C)cc(N)c3c2)cc1` has a relative cell viability of 0.687 ± 0.079.
`CN(C)CCc1c[nH]c2ccc(CS(=O)(=O)N3CCCC3)cc12` [Almotriptan Malate] was tested, and the relative cell viability was 0.879 ± 0.049.
`Cn1nc(C(C)(C)C)cc1C(=O)N[C@@H](Cc1cccc(Cl)c1)C(=O)NCC#N` [Cathepsin Inhibitor 1] gave a relative cell viability of 0.905 ± 0.12.
In the case of `O=C(Nc1ccccc1)N1CCN(c2nc(-c3ccccc3)ns2)CC1`, the relative cell viability is reported as 1.099 ± 0.007.
`Clc1cccc(CN=C2Nc3ccccc3NC23CCNCC3)c1` [Liproxstatin-1] gave a relative cell viability of 1.04 ± 0.024.
`CC(CNC(=O)c1cccnc1)NC(=O)c1cccnc1` (stereo unspecified) [Nicaraven] gave a relative cell viability of 1.01 ± 0.097.
In the case of `CCCCc1ncc(/C=C(\Cc2cccs2)C(=O)O)n1Cc1ccc(C(=O)O)cc1` [Eprosartan Mesylate], the relative cell viability is reported as 1.03 ± 0.073.
For `CN1CCCN(C(=O)c2cccc(-c3ccc(/C=C4/C(=O)Nc5ccc(Cl)cc54)o3)c2)CC1`, the relative cell viability was 0.882 ± 0.061.
In the case of `CCCCCCCCOc1ccccc1C(=O)Nc1ccc(C(=O)OCC[N+](C)(CC)CC)cc1` [Otilonium Bromide], the relative cell viability is reported as 1.05 ± 0.046.
`CN1CCN2c3ccccc3Cc3ccccc3C2C1` (stereo unspecified) [Mianserin HCl] gave a relative cell viability of 1.07 ± 0.094.
In the case of `COc1cccc(-c2cc(F)ccc2C2Cc3nc(N)nc(C)c3C(=O)N2)n1` (stereo unspecified), the relative cell viability is reported as 0.555 ± 0.066.
Work on `O=c1cc(N2CCOCC2)oc2c(-c3ccccc3)cccc12` yielded a relative cell viability of 0.971 ± 0.072.
With `Cc1cnc(NC(=O)Nc2cc(Br)c(C)cc2OC[C@@H]2CNCCO2)cn1` the relative cell viability was 0.627 ± 0.07.
In the case of `Cc1ccc(Sc2cncc3sc(C(N)=O)cc23)cc1`, the relative cell viability is reported as 1.13 ± 0.071.
For `Nc1cc(C(F)(F)F)c(-c2cc(N3CCOCC3)nc(N3CCOCC3)n2)cn1` [BKM120 (NVP-BKM120, Buparlisib)], the relative cell viability was 0.469 ± 0.025.
In the case of `Cc1c(C(=O)Nc2ccc(N3C[C@@H](C)O[C@@H](C)C3)nc2)cccc1-c1ccc(OC(F)(F)F)cc1` [LDE225 (NVP-LDE225,Erismodegib)], the relative cell viability is reported as 0.972 ± 0.036.
`OCC(CO)N[C@H]1C[C@](O)(CO)[C@@H](O)[C@H](O)[C@H]1O` [Voglibose] gave a relative cell viability of 0.96 ± 0.042.
In the case of `CCc1ccc(/C=C2/SC(=S)NC2=O)cc1`, the relative cell viability is reported as 1.03 ± 0.016.
Molecule `Cc1ccc(Nc2nccc(N(C)c3ccc4c(C)n(C)nc4c3)n2)cc1S(N)(=O)=O` [Pazopanib HCl] has a relative cell viability of 1.18 ± 0.08.
For `Cc1ccc(Nc2nccc(N(C)c3ccc4c(C)n(C)nc4c3)n2)cc1S(N)(=O)=O` [Pazopanib], the relative cell viability was 0.946 ± 0.03.
`COc1cc(Nc2ncc3c(n2)-c2ccc(Cl)cc2C(c2c(F)cccc2OC)=NC3)ccc1C(=O)O` [Alisertib (MLN8237)] showed a relative cell viability of 1.07 ± 0.077.
With `CCCCC(=O)N(Cc1ccc(-c2ccccc2-c2nnn[nH]2)cc1)[C@H](C(=O)O)C(C)C` [Valsartan] the relative cell viability was 1.2 ± 0.047.
Work on `Cc1[nH]nc2ccc(-c3cncc(OC[C@@H](N)Cc4ccccc4)c3)cc12` yielded a relative cell viability of 0.5847 ± 0.0027.
For `CC(C)[C@H](O)C(=O)N[C@@H](C)C(=O)N[C@@H]1C(=O)N(C)CCc2ccccc21`, the relative cell viability was 1.055 ± 0.0076.
`Nc1ccc(/N=N/c2ccccc2)c(N)n1` [Phenazopyridine HCl] was tested, and the relative cell viability was 1.03 ± 0.019.
`CCC(=O)O[C@]1(C(=O)SCF)[C@H](C)C[C@H]2[C@@H]3C[C@H](F)C4=CC(=O)C=C[C@]4(C)[C@@]3(F)[C@@H](O)C[C@@]21C` [Fluticasone propionate] showed a relative cell viability of 0.9349 ± 0.003.
Work on `O=C(O)c1ccccc1Nc1cccc(C(F)(F)F)c1` [Flufenamic acid] yielded a relative cell viability of 1.21 ± 0.017.
For `O=C(O)Cn1nnc(-c2cc(N3CCC(Oc4cc(F)ccc4Br)CC3)no2)n1`, the relative cell viability was 1.076 ± 0.005.
Molecule `Cc1cccc(C)c1OCC(=O)N[C@@H](Cc1ccccc1)[C@@H](O)C[C@H](Cc1ccccc1)NC(=O)[C@H](C(C)C)N1CCCNC1=O` [Lopinavir] has a relative cell viability of 1.05 ± 0.048.
`Clc1ccc(C(c2ccccc2Cl)C(Cl)Cl)cc1` (stereo unspecified) [Mitotane] showed a relative cell viability of 0.94 ± 0.059.
Work on `O=C1O[C@H]([C@@H](O)CO)C(O)=C1O` [Vitamin C] yielded a relative cell viability of 1.079 ± 0.0096.
`CCCCN1CCCC[C@H]1C(=O)Nc1c(C)cccc1C` [Levobupivacaine HCl] showed a relative cell viability of 0.953 ± 0.13.
Molecule `CCCc1cc2c(N3CCN(C4=NCC(C)(C)S4)CC3)ncnc2s1` [MI-2 (Menin-MLL Inhibitor)] has a relative cell viability of 1.019 ± 0.0019.
Molecule `CNCc1ccc(C)c(NC(=O)c2ccc(Nc3nc(-c4ccccc4)c4ccccc4n3)cc2)c1` has a relative cell viability of 0.817 ± 0.06.
`COc1cc(CCc2cc(NC(=O)c3ccc(N4CC(C)NC(C)C4)cc3)n[nH]2)cc(OC)c1` (stereo unspecified) gave a relative cell viability of 1.081 ± 0.01.
Molecule `Nc1ccc(C(=O)O)c(O)c1` [Sodium 4-Aminosalicylate] has a relative cell viability of 0.9162 ± 0.0012.
`O=C(CSc1nc2c(c(=O)n1-c1ccccc1)SCC2)Nc1ccc(-c2ccccc2)cn1` showed a relative cell viability of 1.09 ± 0.086.
`CCOC(=O)CC(=O)N1CCSC1COc1ccccc1OC` (stereo unspecified) [Moguisteine] was tested, and the relative cell viability was 0.825 ± 0.061.
`N#CC[C@H](C1CCCC1)n1cc(-c2ncnc3[nH]ccc23)cn1` was tested, and the relative cell viability was 1.14 and 0.808.
`CN(C[C@@H]1COCCO1)S(=O)(=O)Nc1ccc2ccc3ncc(-c4cnn(C)c4)cc3c(=O)c2c1` gave a relative cell viability of 1.04 ± 0.067.
In the case of `CCCc1nn(C)c2c(=O)[nH]c(-c3cc(S(=O)(=O)N4CCN(C)CC4)ccc3OCC)nc12` [Sildenafil Citrate], the relative cell viability is reported as 1.2 ± 0.029.
`Cc1c(C(=O)N2CCOc3ccc(-c4ccc(N)nc4)cc3C2)ccc(S(C)(=O)=O)c1F` showed a relative cell viability of 0.9185 ± 0.0061.
Molecule `C[C@H](Nc1ncnc2nc[nH]c12)c1cc2cccc(Cl)c2c(=O)n1-c1ccccc1` has a relative cell viability of 0.906 ± 0.051.
`CC(C)(O)CC(=O)NCCn1ccc2ncnc(Nc3ccc(Oc4cccc(C(F)(F)F)c4)c(Cl)c3)c21` was tested, and the relative cell viability was 1.17 ± 0.07.

Source: the supplement of paper PMC10670038
